Measured values taken from the antibiotic and cytotoxicity screens of Wong et al. (2023).
This is one part of the list.

What was measured:
[1] = test system: HSkMC (human skeletal muscle cells); assay: cytotoxicity call (relative viability < 0.9); conditions: 10 µM
[2] = test system: HepG2; assay: cytotoxicity call (relative viability < 0.9); conditions: 10 µM
[3] = test system: S. aureus RN4220; assay: growth inhibition call (relative growth <= 0.2); conditions: 50 µM

Row | Compound | cytotoxicity call [1] | cytotoxicity call [2] | growth inhibition call [3]
1 | C[C@@H]1CN([C@H](C)CO)C(=O)c2cc(NC(=O)C3CCCCC3)ccc2O[C@H]1CN(C)Cc1ccc(-c2ccccc2)cc1 | inactive | inactive | inactive
2 | C[C@H]1CCCCO[C@@H](CN(C)Cc2ccccc2)[C@@H](C)CN([C@@H](C)CO)C(=O)c2cc(NS(=O)(=O)c3cccs3)ccc2O1 | inactive | active | inactive
3 | Cc1cccc(C(=O)N2CCC[C@@H](Cn3cc(C(C)(C)N)nn3)C2)c1C | inactive | inactive | inactive
4 | C[C@]1(C(=O)O)c2ccccc2C(=O)N(Cc2cc(C(F)(F)F)cc(C(F)(F)F)c2)[C@H]1c1ccc(CO)cc1 | inactive | inactive | inactive
5 | Cc1noc(C)c1NC(=O)N(C)C[C@H]1Oc2ccc(NS(=O)(=O)c3ccccc3)cc2C(=O)N([C@@H](C)CO)C[C@H]1C | inactive | inactive | inactive
6 | O=C(N/N=C/[C@H](O)[C@@H](O)[C@@H](O)[C@H](O)C(=O)O)c1ccccn1 | inactive | inactive | inactive
7 | CCC[C@@H](O)C#Cc1cnc2c(c1)C(=O)N([C@H](C)CO)C[C@H](C)[C@H](CN(C)C(=O)Nc1ccc(OC)cc1)O2 | inactive | inactive | inactive
8 | O=C(C[C@@H]1C=C[C@H](NC(=O)CN2CCOCC2)[C@@H](CO)O1)NCc1cccc(F)c1 | inactive | inactive | inactive
9 | CN1CCN(C(c2ccccc2)c2ccccc2)CC1 | inactive | inactive | inactive
10 | COc1ccc(CN(C)C[C@H]2OCCCC[C@@H](C)Oc3ccc(NC(=O)Nc4ccc(OC)cc4)cc3C(=O)N([C@H](C)CO)C[C@H]2C)cc1 | inactive | active | inactive
11 | O=C(C[C@@H]1CC[C@H]2[C@@H](COC[C@@H](O)CN2C(=O)c2ccc(F)cc2)O1)NCCCN1CCOCC1 | inactive | inactive | inactive
12 | Cc1ccc(N2CCC(CN)CC2)nn1 | inactive | inactive | inactive
13 | COCCOC(=O)N1C(=O)[C@@]2(c3cc(C#CCNC(N)=O)ccc31)[C@H](c1ccc(OCCO)cc1)N1[C@H](c3ccccc3)[C@H](c3ccccc3)OC(=O)[C@H]1[C@@H]2C(=O)N1CCc2cc(OC)c(OC)cc2C1 | inactive | inactive | inactive
14 | Cc1ccc(S(=O)(=O)Nc2ccc3c(c2)C(=O)N([C@H](C)CO)C[C@H](C)[C@@H](CN(C)S(=O)(=O)c2ccc(F)cc2)OCCCC[C@@H](C)O3)cc1 | inactive | inactive | inactive
15 | Cc1ccc(S(=O)(=O)Nc2cccc3c2O[C@H](CN(C)CC2CC2)[C@H](C)CN([C@H](C)CO)C3=O)cc1 | inactive | inactive | inactive
16 | C[C@@H]1CCCCO[C@@H](CN(C)S(=O)(=O)c2cn(C)cn2)[C@@H](C)CN([C@@H](C)CO)C(=O)c2cc(NS(=O)(=O)c3ccccc3)ccc2O1 | inactive | inactive | inactive
17 | C[C@H](CO)N1C[C@H](C)[C@@H](CN(C)Cc2ccc(C(=O)Nc3ccccc3N)cc2)Oc2ccc(NS(=O)(=O)c3ccc(Cl)cc3)cc2C1=O | inactive | inactive | inactive
18 | COc1ccc([C@@H]2C/C=C\C[C@@H](c3cccc(Cl)c3)NC(=O)[C@@H](c3ccccc3)CC(=O)N2)c(OC)c1 | inactive | inactive | inactive
19 | C[C@H](CO)N1C[C@H](C)[C@H](CN(C)S(=O)(=O)c2ccc(F)cc2)Oc2ccc(NS(=O)(=O)c3ccccc3)cc2C1=O | inactive | inactive | inactive
20 | Cn1c(=O)c2cn3ncccc3c2n(C)c1=O | inactive | inactive | inactive
21 | Cc1noc(C)c1S(=O)(=O)Nc1ccc2c(c1)CC(=O)N([C@H](C)CO)C[C@@H](C)[C@H](CN(C)Cc1ccc3c(c1)OCO3)O2 | inactive | inactive | inactive
22 | CC(=O)NCCCC[C@@H]1NC(=O)[C@@H]2C[C@H](C(=O)NCCCCCCN)[C@H](c3cccc(OCCO)c3)N2C1=O | inactive | inactive | inactive
23 | COc1ccc(S(=O)(=O)N(C)C[C@@H]2Oc3ccc(NS(=O)(=O)c4cn(C)cn4)cc3C(=O)N([C@@H](C)CO)C[C@H]2C)cc1 | inactive | inactive | inactive
24 | CCOC(=O)CN1C[C@]23C=C[C@H](O2)[C@@H](C(=O)NCc2ccc(OC)cc2)[C@H]3C1=O | inactive | inactive | inactive
25 | C[C@H](CO)N1C[C@H](C)[C@H](CN(C)Cc2ccc(C(F)(F)F)cc2)Oc2c(NC(=O)Nc3cccc4ccccc34)cccc2C1=O | inactive | inactive | inactive
26 | C[C@@H]1CCCCO[C@@H](CN(C)Cc2ccc(Cl)c(Cl)c2)[C@H](C)CN([C@H](C)CO)C(=O)c2cc(NC(=O)C3CCCCC3)ccc2O1 | inactive | active | inactive
27 | C[C@H](CO)N1C[C@H](C)[C@H](CN(C)Cc2ccc(Oc3ccccc3)cc2)Oc2ccc(NC(=O)Nc3ccc(F)cc3)cc2CC1=O | inactive | active | inactive
